In the RNAGym collection of RNA variant scans (doi:10.7554/elife.90254):
Read counts are not given, so values of variants with three or more changes are uncertain.

B1: LINE1-mini (parent)
chain: GGCAGAGCUCAACACAGCGUGGCAAAGUGGCUGUGGCUAGACUGCC

Variants of: B1
Assay: self-cleavage, relative activity (ratio to wild type); higher = more cleavage; in vitro, sequencing; the parent is a self-cleaving ribozyme

Row | Variant | self-cleavage
1 | GGCAGAGCUCCACACAGCGUGGCAAAGUGGCAGUGGCUAGACCGCC | 0.05
2 | GGCAGAGCUCCACACAGCCUGGCAAUGUGGCUGUGGCUAGACUGCC | 0.11
3 | GGCAGAGCUCCACACAGCGUCGAAAAGUGCCAGUGGCUAGAAUGCC | 0
4 | GGCAGAGCUCCACACAGCGUGGCAAAGUGGCUGAGGCUAGACUGGC | 0.01
5 | GGCAGAGCUCCACACAGCGUAGCAAAUUGGCUGUGGAUAGACUGCC | 0.01
6 | GGCAGAGCUCCACACAGCAUGGCAAAGUGGCGGUGGCUAGACUGCC | 0.03
7 | GGCAGAGCUCCACACAGCGUGUCAAAGUGGUUGUGGCUUGACUGCC | 0.01
8 | GGCAGAGCUCCACACAGCGUGGCAAAGUGGCUGUGUCUAGACUGUC | 0.01
9 | GGCAGAGCUCCACACAGCGUGGCAAAGUGGCUGUGUCUAGACUUCC | 0.02
10 | GGCAGAGCUCCACACACGGUGGCAAAGUGGCUGUGACUAGACUGCC | 0.02
11 | GGCAGAGCUCGGCACAGCGUGGCAAAGGGGCUGUGGCUAGACUGCC | 0
12 | GGCAGAGCUCGACCUAGCGUGGCAAAGUCGCCGCGGCUAGACUGCC | 0.02
13 | GGCAGAGCUCCACACAGCUAGGCAAAGUGGCUGUGGCUAGACUGCC | 0.03
14 | GGCAGAGCUCCACACAGCUUGGCAAAUUGGCUCUGGCCAGACUGCC | 0.02
15 | GGCAGAGCUCCACACAGCGUGGUAAAGUGGCUGUGGCUAGAAUGCC | 0.01
16 | GGCAGAGCUCGUCACAGCGUGGGAAAGCGGCUGUGGCUACACUGCC | 0
17 | GGCAGAGCUCCACACAGCGUGGCAAAGUGGCUGUGGCUACACUGCA | 0.02
18 | GGCAGAGCUCCACACAGCGUGGGAAAGUGGCUGUGGCUAGACUCCC | 0.04
19 | GGCAGAGCUCCACACAUGGUGGCAAAGUGGCGGUGGCUAGAAUGCC | 0
20 | GGCAGAGCUCCACACAUCGGGGCAAAGUGGCUGUGGCUAGACUUCC | 0.05
21 | GGCAGAGCUCCACACAGCGUAGCAAAGUGGCUGUGGCUAGACUGUC | 0.05
22 | GGCAGAGCUCCACACAGCGUGUCAAAGUGGCUGUGGAUAGACUCCC | 0
23 | GGCAGAGCUCGCCACAGCGUCGCAAAGUGGCUGUGGCAAGACUGCC | 0.02

Row | Variant | self-cleavage
24 | GGCAGAGCUCGACCCAGCGUGGCAAAGUGGCUGUGGCUAGAAUGCC | 0.01
25 | GGCAGAGCUCCACACAGCGGGGCAAAGUGGCUAUGGCUAGACUGCC | 0.01
26 | GGCAGAGCUCCACACAGCGUGGCAAAGUGUCUGUGGCUAGAAUGCC | 0.01
27 | GGCAGAGCUCCACACAGCGUGGCAAAGUGGCUGUCGCUGGACUGCC | 0.01
28 | GGCAGAGCUCCACACAGCGUGGCAAAGUGGCAGUGGCUAGACUGCG | 0.01
29 | GGCAGAGCUCCACACAGCGUGGCAAAGUCUCUGUGGCUAGACUGCC | 0.01
30 | GGCAGAGCUCCACACAGCGUGGCAAAGUGGCUGUGGCUACUCUGCC | 0.01
31 | GGCAGAGCUCCACACAGCUUGGCAAAGUGGCUGUGGGUAGACUGAC | 0.01
32 | GGCAGAGCUCGACCCAGCGUGGGAAAGUGGCUGUGGCUAGACUGCC | 0.02
33 | GGCAGAGCUCCACACAGCGUGGCAAAGUCGCUGUGUCUAGACUGCC | 0.01
34 | GGCAGAGCUCCACACACCGUGGCAAGGAGGCCGUGGUUAGAUUGCC | 0
35 | GGCAGAGCUCCACACAGCGUGGCAAAGUGGCUGCGGCUUGACUGCC | 0.06
36 | GGCAGAGCUCCACACAGCUUGGCAAAGUGGCUGUGGCUAAAAUGCC | 0.01
37 | GGCAGAGCUCGCCACAGCGUGGCAAAGUGGCUGUGCCUUGACUGCC | 0
38 | GGCAGAGCUCGUCACAGCGUGGCAGACUGGCUGUGGCUAGACUGCC | 0
39 | GGCAGAGCUCGUCACAGCGUGGCAAAGUGGCUGUGACUAGACUGCC | 0
40 | GGCAGAGCUCCACACAGCGUGGCAAAUUGGCUGUGGCUAGACUGAC | 0.02
41 | GGCAGAGCUCCACACAGCGAGGCAAAGUGGCUGUGGCUAGACUCCC | 0.02
42 | GGCAGAGCUCCACACAUCCUGGCAAAUUGGGUGUGGCUAGACUGCC | 0.02
43 | GGCAGAGCUCCACACAGCGUGGCAAAGUCGCUGAGACUAGAGUGCC | 0.02
44 | GGCAGAGCUCCACACAGCCUGGCAAAGUGGCUUUGGCUAGACUGCC | 0
45 | GGCAGAGCUCCACACAACGUGGCAAAGUUGCUGUGGCUGUACUGCC | 0
46 | GGCAGAGCUCCACACAGCGUGGCAAAGUAGCUGUGGCAAAACUGCC | 0.01

Row | Variant | self-cleavage
47 | GGCAGAGCUCCACACAGCGUUGCAAAGAGGCGGUGACUAGACUGCC | 0.01
48 | GGCAGAGCUCGACGCAUCGUGGCAAAGUGGCUGUGGCUAGACUGCC | 0.06
49 | GGCAGAGCUCGACGCAGCGUGGCAAAGUGGCUGUGGCUAGAAUGCC | 0.03
50 | GGCAGAGCUCCACACAGCGUUGCAAAGUGGCUGUGGCUAGCCAGCA | 0
51 | GGCAGAGCUCGACCGAGCGUGGCAAAGUGGCUGUGUCUAGACUGCC | 0.02
52 | GGCAGAGCUCCACACAGCGUGGCAAAGUGGCUCUGGCAAGACUGCC | 0.03
53 | GGCAGAGCUCCACACAGCGUGGCAAAGUGGCUGUGGUUUUACUGCC | 0
54 | GGCAGAGCUCCACACAGCGCGGCAAAGUUGCUGUGGCUAGACUGCC | 0.01
55 | GGCAGAGCUCCACACAGCGUGGCAAAGUGGCGGUGGCUGGACUGCC | 0
56 | GGCAGAGCUCCACACAGCGUGGCAAAGUGGCCGUGGCUAGUCGGCC | 0.01
57 | GGCAGAGCUCCACACAGCGUCGCAAAGUGGGUGUGGCUAGAGUGCC | 0.01
58 | GGCAGAGCUCCACACAGCGUGGCAAAAUGGCUGUGGCUAGACUCCC | 0.02
59 | GGCAGAGCUCCACACAGCGUGGCAAAGUGGCUGCCGCUAGACUGCU | 0
60 | GGCAGAGCUCCACACAGCGUGGCAAAGUGGGAGUGGCUAAACUGCC | 0.02
61 | GGCAGAGCUCCACACAGCGUGGCAAAGUGUUUGUGGCUAGACUGCC | 0.03
62 | GGCAGAGCUCCACACAGCGUGGCAAAGUGCCUGUGGCUAGCCUGCC | 0
63 | GGCAGAGCUCCACACACCAUGGCAAAGUGGCUGUGCCUAGACUGCC | 0.01
64 | GGCAGAGCUCCACACAACGGGGCAAAGUGGUUGUGGCAAGACUGCU | 0
65 | GGCAGAGCUCCACACAGCGUGGCAAAGUGGCUCUGGCUAGACUGCA | 0.02
66 | GGCAGAGCUCCACACAGCGUUGCAAUGUGGCUGUGGCUAGACUGGC | 0.01
67 | GGCAGAGCUCCACACAGCGAGCCAAAUUGGCUGUGGCUAGAAUGCC | 0
68 | GGCAGAGCUCCACACAGCGUGGCAAAGUGGCUAUGCCUAGACUUCC | 0
69 | GGCAGAGCUCCACACAGCGUGUCAAAGUGGCUGUGGCUUGACUGCC | 0.04

Row | Variant | self-cleavage
70 | GGCAGAGCUCCACACAGCGUGGCAAAGUGGCUGUGGCCAAACUCCC | 0
71 | GGCAGAGCUCCACACACCCUGGCAAAGUGGCUGUGGCUAGACUGCC | 0.03
72 | GGCAGAGCUCCACACAGCGUUGCAAAGUGGCAGUGGCUAUACUGCC | 0.01
73 | GGCAGAGCUCCACACAGCGUGGCAAAGUGGCUGUGGCCAAACUGCC | 0
74 | GGCAGAGCUCGACCCAUCGUGGGAAAGUGGCUAUGGCUAUACUGCC | 0
75 | GGCAGAGCUCCACACAGCGUGGCAAAGUGACGGUGGCUAGACUGCC | 0.01
76 | GGCAGAGCUCCACACAGCGUGGCAAAGUGACAGUGGCUAGACUGCC | 0
77 | GGCAGAGCUCCACACAGCGUGGCAAAGUGGCUGUGGAUGGACUGCC | 0.03
78 | GGCAGAGCUCCACACAGCGUAGCAAAGUGGCUUUGGCUAGACUGCC | 0.01
79 | GGCAGAGCUCCACACAGCGUCGCAAAGUGGCUGGGGCUAUACUGCC | 0
80 | GGCAGAGCUCGCCACAGCGUGGCACAGUGGCUGUGGCUAGACUGUC | 0.02
81 | GGCAGAGCUCCACACAGCGUGACAAAUUGGCUGUGGGUAGACUGCC | 0
82 | GGCAGAGCUCCACACAGCGUGACAAAGUGGCUGUGGCUAUACUGCC | 0.01
83 | GGCAGAGCUCCACACAGCGUGGCAAAGUGACUGUAGCUAGACUGCC | 0.04
84 | GGCAGAGCUCGUCACAGCGUGGAAAAGUGGCGGUGGCUAGACUGCC | 0.03
85 | GGCAGAGCUCCACACAGCGUGGCAAAGUGGCUGCGUAUAGACAGUC | 0
86 | GGCAGAGCUCCACACAGCGCCGCAUGGUGGCUGUGGCUAUACUGCC | 0.01
87 | GGCAGAGCUCCACACAGCGUGGCAAAUUGGCUGUGGCUAGACUCCC | 0.02
88 | GGCAGAGCUCCACACAGCGUGGUAAAGUGGCUGUGGCGAGACUGCC | 0
89 | GGCAGAGCUCGCCACAGCGUGGCAAAGUGGCUGGGGCUAGACUGCC | 0.01
90 | GGCAGAGCUCCACACAGCGUGGAAAAGUGGGUGUGGCUAGACUGCC | 0.01
91 | GGCAGAGCUCCACACAGCGUGGCAAAGUGGCUGUGGCUAGACCUCC | 0.04
92 | GGCAGAGCUCCACACAGCGUGACAAAGUGGCUGUGGCUAGACGGCC | 0

Row | Variant | self-cleavage
93 | GGCAGAGCUCCACACAGCGUCGCAAAGUGGCUGUGGCCAGACUGCC | 0.15
94 | GGCAGAGCUCCACACAGCGUUGCAAAGUGGCGGAGGCUAGACUGCC | 0.06
95 | GGCAGAGCUCCACACAGCGUGGCAAAGUGGCUGAGGCUAGACUGCA | 0.03
96 | GGCAGAGCUCCACACAGCGUGUUAAAGUGGCUGUGGCAAUACUGCU | 0
97 | GGCAGAGCUCCACACAGCGUGAAAAAGUCGCUGUGGCUAGACUGCC | 0.02
98 | GGCAGAGCUCGACCCAGCGUGGCAAAGUGGCUGUGGCUAGACUGAU | 0.03
99 | GGCAGAGCUCCACACACCGUGGAAAAGUGGCUGUGGCUAGACUGCC | 0.01
100 | GGCAGAGCUCCACACAGCGGGGCAAAGUGGGUGCGGCUAGACUUCC | 0
101 | GGCAGAGCUCCACACAGCGAGGCAAAGUGGCGUUGGCUAGACUGCA | 0.02
102 | GGCAGAGCUCCACACACCGUGGCAAAGUGGCUGUGGCUAUACUGCC | 0.02
103 | GGCAGAGCUCGCCACCGCGUGGCAAAGUGACCGUGGCUACACUGCC | 0.01
104 | GGCAGAGCUCGGCACAGCGUGGCAAAGUGGCUGUGGUUAGACUGCC | 0.01
105 | GGCAGAGCUCCACACAGCGUGGCAAAGCGGCUGGGGCUAGUCUUCC | 0
106 | GGCAGAGCUCCACACACCGUUGCAAAGUGGCUGUGGCUAGACUGCC | 0.02
107 | GGCAGAGCUCCACACAGCGUGGCAAAGUGUCUGUGGCUCGACUGCC | 0.02
108 | GGCAGAGCUCCACACAGCGUGCCAAAGAGGCUCUGGCUAGACUGCC | 0.02
109 | GGCAGAGCUCGACCCAGCGUCGCAAAGUAGCUGUGGCUAGACUGCC | 0.02
110 | GGCAGAGCUCCACACAGCGUGGAUAAGUGGCUAUGGCUAGACUGCC | 0.01
111 | GGCAGAGCUCCACACAGCGUGGCAAACUGACUGUGGCUAGACUGCC | 0.06
112 | GGCAGAGCUCCACACAGCAUGUCAAAGUGGCUGUGGCUAGACUGCC | 0.14
